Results as given in the RNAGym collection of RNA variant scans (doi:10.7554/elife.90254).
Read counts are not given, so values of variants with three or more changes are uncertain.

B1: LINE1-mini (parent)
chain: GGCAGAGCUCAACACAGCGUGGCAAAGUGGCUGUGGCUAGACUGCC

Variants of: B1
Assay: self-cleavage, relative activity (ratio to wild type); higher = more cleavage; in vitro, sequencing; the parent is a self-cleaving ribozyme

Variant	self-cleavage
G21C G29U G30U A41U	0.34
G19U A26C G29U C37A	0.22
A14C G17U G19A G22U G27U	0.09
G2C A25C U32C A39U C46A	0.01
G5U C15U C18G G27U C31U G35U	0.03
C13G A24U G44A	0.04
C10A G21U G44U	0.08
A12C A14C G29A	0.05
U9A U38A A39U	0.05
G5C C10U U34G	0.02
C13A G21C G30U	0.07
A4U C10A A39C	0
C3A A16U A41C	0.08
A16G G30C A39U G40U C45U	0.04
A14C G22C G35A C42A	0.02
C3G C13A A24C C45U	0.06
A4C U38G C46U	0.07
C13A C23A U28A C31G G33U A39G	0.03
G2U A11G G30C C31G	0
G5U A14C C18U U20C	0.06
C3G G5C A12U	0.13

Variant	self-cleavage
U28C G33A A39U C42U	0.01
G2C A6G G27C G36C C42G	0
C3U C15G G17A G36U A41U	0.02
A12U G17A G44A	0.05
A25C G44U C46A	0.02
C8G A16U G30U	0.05
A6C G30C G36A C37A	0.1
A6C C13A C15A U32C	0.04
A14C A25U C31U	0.01
A26U U38C A41C	0.04
U32G G35C G36U A39G	0.02
C13U G17A G30A C46A	0.06
C23G G35A G40U C42A G44A	0.03
C23U C31U G36C A39C G40A G44A	0.03
C18A G21C G35A U43A	0.01
C13U G29U C45A	0.15
G2U C15A C23U G29U	0.01
C8U G17C C46G	0.37
G2U A6U G17C A41U	0.21
C13A A16C U20G U34A U38C	0.05
G2A A6G C10U A12U A39U	0.03

Variant	self-cleavage
C3A C13A C42U	0.12
A25U U34G G35A	0.01
G1C U20A G30U	0.03
A12G C13U G22U	0.02
G1C C18G A25C C42U	0.01
C18U G27U C42A	0.05
A4U G21C U43G C45U	0.02
G2C U9A C23U A39G	0.11
G1U G2A C3U A24C	1.31
A14U A24G A25U G36A G44A	0.05
G5C U20A A24G G35U U38C	0
C3U A12U G44C	0.18
A4C C18A U20G C23A U34C	0.09
C3A A14U A41U	0.12
G7A C8A A14U C15A C42G G44U	0.36
G1A G7U A16C G22A U38C C42A U43A	0.08
C3U C18U G33U U38A	0.05
A4U U34A G40U C42U	0.08
C3U A11C G21A C45A	0.01
C3A C8U G21A U28A U34A G40A A41G	0.08
G2C A16C A26C C31U	0.03

Variant	self-cleavage
U9C G22A A26U C45G	0.04
C10A A16C G29A	0.03
C3A G29U U34G G44U	0.16
G5C G22U A25C G30C	0.08
G1C U28G G29U C42G	0.01
G1C C3A A12C A14C G21C	0.03
A6C A12C G17A G21A G30A G35C	0.02
G5U G30C G35C C42U	0.07
C10U A11U G21A C31U	0.38
A16G G21U C31G A41U	0.01
G22U G33C C45U	0.05
G19A G29U G35A	0.36
G21U A24C G44U	0.16
A4G G19C C31A	0.07
C13G C15A C37U G40U	0
A6C C10A C13A G36A A41U	0.01
G2A C8A G22A G36U C37U	0.04
G2A C18A U34G A41C	0.05
C3U U32C C46A	0.09
G19C G33A G40A G44A C45A	0.03
